PubChem BioAssay AID463173 (ICCB-Longwood Screening Facility, Harvard Medical School, 2010)
Out of some 52,000 compounds screened, about 4,300 (8.3%) were called active. Cut-off read from the data, not from the text of the source: active = survival mostly below about 52% (no sharp cut-off); inactive = mostly above about 56%. The list shows a part of the results.

These molecules were tested on DeltatarO mutant (assay: growth inhibition of S. aureus wild type versus tarO mutant, primary screen, teichoic acid synthesis inhibitors, RN4220, OD600 (AID 463173)). Conditions: OD600, 18 h, hits give low values, screened at 18.75 µg/mL (by protocol).

SMILES	survival
CCCOc1ccc(C(=O)Nc2ccc(NC(=O)c3ccccc3)c(Br)c2)cc1	inactive: 129%
O=S(=O)(NCCc1ccccc1)c1ccc(S(=O)(=O)N2CCCCC2)cc1	inactive: 61%
COc1ccccc1NC(=O)CN1C(=O)C2(SCC(=O)N2c2ccc(F)c(F)c2)c2ccccc21 (configuration not stated)	inactive: 90%
CCc1cc(C(=O)NCc2ccccc2)no1	inactive: 62%
COc1cc(NC(=O)CSc2nc(-c3ccco3)cc(C(F)(F)F)n2)cc(OC)c1OC	inactive: 54%
Cc1ccc(CN2COc3ccc4c(-c5ccccc5)cc(=O)oc4c3C2)cc1	inactive: 75%
Cc1c(C(=O)Nc2cccc(Cl)c2)oc2ccc(S(=O)(=O)N3CCCCCC3)cc12	inactive: 69%
Cc1cc(C)nc(-n2nc(C)c3c2N(C)C(=O)CC3c2ccc(Cl)cc2)n1 (configuration not stated)	inactive: 73%
COc1cccc(CNC(=O)c2ccc3c(c2)nc2n3CCOC2)c1	inactive: 64%
CCOC(=O)CSc1nc2sc3c(c2c(=O)n1-c1ccccc1)CC(C(C)C)OC3 (configuration not stated)	inactive: 96%
CCN(Cc1ccccc1)C(=O)CN1C(=O)COc2ccc(S(=O)(=O)NC3CCCC3)cc21	inactive: 78%
CCOc1ccc(CNC(=O)c2ccc(CS(=O)Cc3ccc(Cl)cc3)o2)cc1 (configuration not stated)	inactive: 88%
O=C(CN1C(=O)COc2ccc(S(=O)(=O)NC3CCCC3)cc21)Nc1ccc(Cl)cc1	inactive: 77%
CCOC(=O)c1[nH]c(C)c(C(=O)NC(CC)Cc2ccccc2)c1C (configuration not stated)	inactive: 78%
O=C(Nc1cccc(-c2cn3cccnc3n2)c1)c1cc(Br)ccc1Cl	inactive: 67%
Cc1oc(CSCCSCc2cc(C(=O)O)c(C)o2)cc1C(=O)O	inactive: 94%
COc1ccc(C(=O)Nc2cc(C)c(O)c(-c3nc4ccccc4s3)c2)cc1OC	inactive: 51%
Cc1ccc(C)c(NC(=O)Cn2c(=O)n(CC3CCCO3)c(=O)c3ccccc32)c1 (configuration not stated)	inactive: 120%
CCN1CCN(c2ncnc3c2cnn3-c2ccc(C)c(C)c2)CC1	inactive: 97%

SMILES	survival
CC(=O)Nc1ccc(NC(=O)CSc2nc3ccccc3nc2N2CCCCC2)cc1	inactive: 57%
Cn1c(-n2cccc2)c(-c2c(-c3ccccc3)[nH]c3c2c(=O)[nH]c(=O)n3C)c(=O)[nH]c1=O	inactive: 60%
Cc1ccc2c(c1)N(CC(=O)NCCc1ccc(Cl)cc1)C(=O)c1cccnc1O2	inactive: 107%
CCOC(=O)c1c(C)[nH]c(C)c1S(=O)(=O)N1CCCC(C(=O)NCc2ccccc2Cl)C1 (configuration not stated)	inactive: 89%
CCc1ccccc1Nc1ncnc2c1cnn2-c1ccc(C)cc1C	inactive: 75%
COc1ccc(C(=O)Nc2nnc(S(=O)(=O)N3CCN(c4ccc(F)cc4)CC3)s2)cc1	inactive: 56%
CC(C)COc1ccc(C(=O)Nc2nnc(S(=O)(=O)N(C)Cc3ccco3)s2)cc1	inactive: 79%
COc1cccc(CNC(=O)c2cc3c(=O)n(Cc4cccnc4)ccc3nc2C)c1	inactive: 144%
CCc1cccc(NC(c2ccccc2)c2nnc(-c3ccccc3F)o2)c1 (configuration not stated)	active: 11%
Cc1ccc(Nc2c(-c3cccnc3)nc3ccc(Cl)cn23)cc1	inactive: 83%
O=C(Cn1nnc(-c2ccc(S(=O)(=O)N3CCCC3)cc2)n1)Nc1ccccc1-n1cccc1	inactive: 100%
O=C(O)CCNC(=O)C(c1ccccc1)c1ccccc1	inactive: 109%
CCOC(=O)C1CCN(C(=O)c2c(C)nn(-c3ccc(F)cc3)c2-n2cccc2)CC1	inactive: 66%
COc1ccc2cc(CCNS(=O)(=O)c3ccc(C)cc3)c(=O)[nH]c2c1	inactive: 72%
CCC(C)NC(=O)Cn1c(=O)n(-c2ccc(OC)c(OC)c2)c(=O)c2ccccc21 (configuration not stated)	inactive: 95%
Cc1ccc2oc(-c3cc(NC(=O)CC(C)C)ccc3Cl)nc2c1	inactive: 87%
CCCc1cc(=O)oc2c(C)c3c(cc12)CN(CCc1ccc(Cl)cc1)CO3	active: 39%
Cc1ccc2c(c1)Cc1c(nc(-c3ccc(F)cc3)nc1SCC(=O)N1CCCCC1)O2	inactive: 57%
CCOCCCn1c(SCC(=O)Nc2ccc(CC)cc2)nc2ccccc2c1=O	inactive: 77%

SMILES	survival
COc1ccc(C(=O)N(Cc2sccc2C)C2CCS(=O)(=O)C2)cc1 (configuration not stated)	inactive: 75%
COc1cc(NC(=O)Cn2ccc3ccccc3c2=O)cc(OC)c1OC	inactive: 89%
Cc1cccc(NC(=O)CC(C)(C)C)c1	inactive: 88%
Cc1cccc(OCC(=O)Nc2ccc3c(c2)nc(CN2CCCCC2)n3C)c1	inactive: 86%
O=S(=O)(c1ccc(-c2csc(=Nc3ccc(F)cc3)n2CCCCCCO)cc1)N1CCCC1	inactive: 56%
CCCc1nnc(NC(=O)Cc2coc3c(C)c(C)ccc23)s1	inactive: 89%
Cc1ccc(Cl)cc1N1CCN(S(=O)(=O)c2ccc3c(c2)C(C(C)C)C(=O)N3)CC1 (configuration not stated)	inactive: 90%
CCc1cc(=O)[nH]c(SCc2nc(-c3cccc(Cl)c3)no2)n1	inactive: 49%
O=C(Cn1nc(C(F)(F)F)c2c1CCC2)NC1CCCC1	inactive: 94%
O=C(COCc1cc(-c2cccs2)on1)NCc1ccc(F)cc1	inactive: 69%
O=C(Nc1ccc(Cl)cc1)c1ccc(-n2cnnc2)cc1	inactive: 84%
Cc1ccccc1C(=O)NNc1ncnc2c1cnn2-c1cccc(Cl)c1	inactive: 69%
CC(=O)c1ccc(NC(=O)CC2Nc3cc(C)c(C)cc3NC2=O)cc1 (configuration not stated)	inactive: 65%
CCCc1ccc(NC(=O)C2CCCN(c3cnccn3)C2)cc1 (configuration not stated)	inactive: 76%
CCOc1cc(CNC(=O)Cn2ncn3c(cc4cc(F)ccc43)c2=O)cc(OCC)c1OCC	inactive: 67%
Cc1ccc(Cn2c(CNC(=O)c3ccc(Cl)c([N+](=O)[O-])c3)nc3cccnc32)cc1	inactive: 88%
COc1cccc(-c2oc3ccc(C)cc3c(=O)c2O)c1	inactive: 92%
CCOc1ccc(Nc2nc(C)c(NC(=O)c3cccc(F)c3)c(Nc3ccc(OCC)cc3)n2)cc1	inactive: 111%
Cc1noc(C)c1S(=O)(=O)N(CC(=O)NCCc1ccc(Cl)cc1)c1ccc(C(C)C)cc1	inactive: 86%
